From PMC6919601, “Identification of Plasmodium dipeptidyl aminopeptidase allosteric inhibitors by high throughput screening” (PLoS ONE, 2019)
Values joined by “and” are separate entries in the source; they are usually repeats but may differ in a detail not shown here. Equal entries are not always repeated. Out of some 110,000 compounds screened, about 230 (0.21%) showed an effect of 50% or more. This is one part of the list.

biological target: DPAP1 (Plasmodium falciparum, UniProt Q8IIJ9); assay: primary screen, percent inhibition; read by cleavage of a fluorogenic dipeptide substrate; higher = more effect of the substance; design: species or system P. falciparum D10 trophozoite lysates; single well
Sequence (Q8IIJ9 whole entry, looked up): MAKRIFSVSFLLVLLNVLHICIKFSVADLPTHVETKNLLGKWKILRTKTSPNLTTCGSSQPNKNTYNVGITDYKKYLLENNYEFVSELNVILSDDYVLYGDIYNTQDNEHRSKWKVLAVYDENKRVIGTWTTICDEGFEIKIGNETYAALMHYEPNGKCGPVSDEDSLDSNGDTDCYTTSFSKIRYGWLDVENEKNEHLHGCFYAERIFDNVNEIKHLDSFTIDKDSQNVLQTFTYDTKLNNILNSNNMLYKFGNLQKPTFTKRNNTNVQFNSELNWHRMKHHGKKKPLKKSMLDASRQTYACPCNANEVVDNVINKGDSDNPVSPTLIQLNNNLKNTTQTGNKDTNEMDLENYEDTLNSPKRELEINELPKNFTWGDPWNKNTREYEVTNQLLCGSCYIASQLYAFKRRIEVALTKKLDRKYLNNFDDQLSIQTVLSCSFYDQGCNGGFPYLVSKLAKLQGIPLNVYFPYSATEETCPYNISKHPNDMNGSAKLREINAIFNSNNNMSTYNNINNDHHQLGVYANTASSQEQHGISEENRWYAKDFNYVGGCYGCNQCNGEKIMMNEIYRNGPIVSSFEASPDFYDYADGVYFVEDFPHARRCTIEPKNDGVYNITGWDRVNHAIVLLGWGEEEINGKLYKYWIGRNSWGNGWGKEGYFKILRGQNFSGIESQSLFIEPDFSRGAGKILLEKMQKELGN
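Further: 30 min substrate incubation versus DMSO and 10 µM JCP410 controls.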

Point of comparison: O=c1sc2ccccc2n1CN1CCCCC1, “% Inhibition @ 10 uM” value -3.15%. Against it:
- Cc1cccc(-c2nc(CS(=O)CC(=O)NC3CCCC(C)C3C)c(C)o2)c1 (centres unmarked) — higher, -2.85%
- COc1ccc2cc[n+](C)cc2c1-c1c(OC)ccc2cc[n+](C)cc12 — higher, 2.51%
- CC1SC2(C(=O)Nc3ccccc32)N(c2ccc3ccccc3c2)C1=O (centres unmarked) — lower, -6.62%
- Nc1cccnc1N1CCOCC1 — higher, 1.12%
- COc1ccc(C2CC(=O)c3cnc4c(-c5ccc(Cl)cc5)c(C)nn4c3C2)cc1 (centres unmarked) — higher, 2.31%
- Cc1ccc(CNCCSc2nnnn2-c2ccccc2)s1 — lower, -4.71%
- COc1cc(OC)cc(C(=O)Nc2ccc(S(=O)(=O)NC(C)=O)cc2)c1 — higher, 1.15%
- CN(Cc1ccco1)C1CCCCC1NS(=O)(=O)c1ccccc1 (centres unmarked) — lower, -4.19%
- CC(=O)c1cc(-c2ccccc2)n(CCC(=O)NCc2ccc3c(c2)OCO3)c1C — higher, -1.88%
- CC(=O)N1CCN(C2=NC(=O)/C(=C/c3ccccc3OCc3ccccc3)S2)CC1 — higher, 0.487%
- CC1CCc2cc(F)ccc2N1C(=O)Nc1ccccc1 (centres unmarked) — lower, -8.44%
- COc1ccc(S(=O)(=O)Cc2ccc(C(=O)N3CCC4(CC3)OCCO4)o2)cc1 — higher, -1.28%
- Cc1cccc(C(=O)NCc2cccnc2)c1 — lower, -8.76%
- CCOC(=O)N1CCC(NC(=O)c2cc(C)nc3c2c(C)nn3-c2ccccc2)CC1 — lower, -4.97%
- Cc1ccc(NC(=O)NC(C)c2ccc(C)cc2)cc1 (centres unmarked) — higher, 14.1%
- CCN1C(=S)NC2CC1(C)Oc1ccc(C(=O)OC)cc12 (centres unmarked) — lower, -8.78%
- COc1ccc(NC(=N)Nc2nc(O)cc(CSc3nc4ccccc4s3)n2)cc1 — higher, 6.98%
- OC1CCN(Cc2ccc(Cl)cc2Cl)C1 (centres unmarked) — higher, -0.292%
- CCN(CC)CCN1C(=O)C(O)=C(C(=O)c2ccc(Cl)cc2)C1c1ccc(C)cc1 (centres unmarked) — higher, 41.4%
- CCN1C(=O)/C(=C\c2cc(C)n(-c3cc(C)cc(C)c3)c2C)C(C(=O)OC)=C1C — higher, -1.81%
- N#CC1=C(N)Oc2nc(O)nc(O)c2C1c1cccc2ccccc12 (centres unmarked) — higher, -2.46%
- C#CCN1C(=O)C(O)(CC(=O)c2ccc(OC)c(OC)c2)c2ccccc21 (centres unmarked) — higher, -0.941%
- O=C(Cc1ccccc1)Nc1ccccc1F — higher, 5.29%
- Cc1cc(C(=O)CSc2n[nH]c(N)n2)c(C)n1-c1ccc(F)cc1 — lower, -6.74%
- COc1cccc2cc(C(=O)NCCOC34CC5CC(CC(C5)C3)C4)c(=O)oc12 — higher, 0.503%
- CCC[C@H](NC(=O)OCc1ccccc1)C(=O)c1noc(C(=O)NCc2ccc(-c3ccccc3)cc2)n1 — higher, 19.1%
- C=Cc1ccc(Cn2c(C(=O)O)c(CNCc3ccc(OCC)c(OC)c3)c3ccccc32)cc1 — higher, 2%
- O=C(NC1CCC(NC(=O)c2ccco2)CC1)c1ccco1 (centres unmarked) — lower, -7.98%
- CCC1CCc2c(sc(NC(=O)c3cnccn3)c2C#N)C1 (centres unmarked) — higher, -1.19%
- COc1ccc(Br)cc1CNCCc1c[nH]c2ccccc12 — lower, -3.49%
- O=C1c2ccccc2-c2nnc(-c3cccc(Br)c3)cc21 — higher, -0.736%
- Cc1ccc(-c2cc(C(=O)NCc3cccnc3)c3ccccc3n2)cc1 — lower, -4.01%
- COc1ccc(S(=O)(=O)N2CCN(c3ncc(C(F)(F)F)cc3Cl)CC2)cc1 — higher, 6.17%
- COCCCNC(=O)[C@H](Cc1c[nH]c2ccccc12)NC(=O)OCc1ccccc1 — higher, -2.14%
- CCOC(=O)N1CCN(C(C)Cc2cccc(C(F)(F)F)c2)CC1 (centres unmarked) — higher, -0.0648%
- Cc1cc2nc(NC3=NCN(CCN4CCOCC4)CN3)nc(C)c2cc1C — higher, -0.958%
- CCC(C)(C)c1ccc(OCC(=O)Nc2ccc(C(=O)O)cc2)cc1 — lower, -5.57%
- COc1ccc(OC)c(NC(=O)CN(c2ccc(C)c(Cl)c2)S(C)(=O)=O)c1 — higher, 5.25%
- O=C(CCCn1c(=O)c2sccc2n(Cc2ccccc2)c1=O)NCc1ccccc1 — higher, -3.12%
- O=C(O)CCCCCNC(=O)c1cc2ccccc2cc1O — higher, -1.06%
- CCCCOC(=O)C(C)Nc1nnc(S)nc1O (centres unmarked) — higher, 4.66%
- Cc1cc(C)c2nc(N3CCC(C(=O)NCCCN4CCC(N5CCCCC5)CC4)CC3)sc2c1 — higher, 6.46%
- CCOc1ccccc1C(=O)Nc1nc(C)c(C(=O)N(C)C)s1 — higher, -1.52%
- CNC(=O)CCCCn1c(=S)[nH]c2c([nH]c3ccc(OC)cc32)c1=O — higher, 2.74%
- Cc1cc(O)nc(SCC(=O)Nc2ccc(Cl)c(Cl)c2)n1 — lower, -8.41%
- O=C(COCc1cc(-c2cccs2)on1)NCc1ccc2c(c1)OCO2 — higher, -1.86%
- Sc1nnc2c(n1)[nH]c1ccccc12 — higher, 38%
- NC(=O)C(Cc1ccccc1)N1C(=O)C2C3C=CC(C3)C2C1=O (centres unmarked) — higher, -2.28%
- COc1ccc(N(CC(=O)Nc2ccc(C)c(C)c2)S(C)(=O)=O)c(OC)c1 — higher, -1.22%
- CCOC(=O)C1=C(C)N=c2s/c(=C/c3ccc(Cl)cc3)c(=O)n2C1c1cccs1 (centres unmarked) — higher, -2.27%
- O=C(Nc1ccccc1)c1ccc(CSc2ncccn2)cc1 — lower, -4.66%
- Cc1ccc2nc(NC(=O)C3CCCN3S(=O)(=O)c3cccc4cccnc34)sc2c1 (centres unmarked) — higher, 0.981%
- CC(=O)c1ccc(NC(=O)Nc2ccccc2)cc1 — higher, -2.66%
- N#Cc1ccccc1Sc1ccccc1C(=O)Nc1ccc(Br)cn1 — higher, 5.76%
- COC(=O)C1=C(C)N=C(C)/C(=C(/O)OC)C1c1cn(-c2ccccc2)nc1-c1ccc(F)cc1 (centres unmarked) — higher, -0.178%
- CCOc1ccccc1-c1nc(-c2ccncc2)no1 — higher, 0.032%
- COc1ccc(N(CC(=O)N2CCN(c3ccccc3OC)CC2)S(C)(=O)=O)cc1Cl — higher, 1.84%
- O=C1C2C3C=CC(CC3)C2C(=O)N1c1ccc(Cl)cc1 (centres unmarked) — higher, 3.65%
- Cc1nc2ccc(C(=O)O)cc2c(O)c1CC=C(Cl)Cl — higher, 3.92%
- CN(C)c1ccc(CN2CCc3ccccc3C2)cc1 — higher, 3.25%
- Cc1ccc(Cl)cc1-n1c(C)cc(/C=C2/C(=N)N3C=CSC3=NC2=O)c1C — higher, -2.98%
- Cc1ccc(-c2ccc(C3C(C#N)=C(N)Oc4[nH]nc(C)c43)o2)cc1 (centres unmarked) — higher, 8.62%
- CC1CC(C)CN(CCCNC(=O)C2CCCN(c3nnc(N4CCCC4=O)s3)C2)C1 (centres unmarked) — higher, 45.2%
- Cc1sc2ncn(CC(=O)N(C)C3CCCCC3)c(=O)c2c1S(=O)(=O)N1CCN(C)CC1 — higher, 1.83%
- COc1ccc(C(=O)CSc2nc(C)cc(C)c2C#N)cc1OC — lower, -3.77%
- CCCCOc1ccc(C(=O)Nc2nc(-c3ccc(OC)cc3)cs2)cc1 — higher, -0.615%
- Cc1ccc(C(=O)c2sc3nc(-c4cccnc4)ccc3c2N)c(C)c1 — higher, 2.23%
- Cc1cc(C)nc(NC(=O)NS(=O)(=O)N2CCOCC2)n1 — lower, -4.01%
- C=CCn1c(SCC(=O)Nc2nc(-c3ccccc3)ns2)nc2sc3c(c2c1=O)CCC3 — higher, 4.85%
- CCOc1ccc2ncc(S(=O)(=O)c3ccccc3)c(N3CCN(C)CC3)c2c1 — lower, -6.07%
- C=CCN1C(=O)S/C(=C/C=C/c2ccc(N(C)C)cc2)C1=O — higher, -0.402%
- COc1ccc(OC)c(NC(=O)CN(c2cccc(Cl)c2)S(=O)(=O)c2ccccc2)c1 — higher, 2.45%
- O=C(O)c1ccc2c(c1)C1C=CCC1C(C1CC=CCC1)N2 (centres unmarked) — lower, -3.44%
- CC1(C)CC(=O)C2=C(C1)OC(N)=C(C#N)C2c1ccccc1C(F)(F)F (centres unmarked) — higher, -2.46%
- CS(=O)(=O)N(Cc1ccc(Cl)cc1)c1ccc(C(=O)Nc2ccc(C(N)=O)cc2)cc1 — higher, 5.12%
- COC(=O)C1=C(C)N(Cc2ccco2)C(=O)/C1=C\c1cc(C)n(-c2ccc(C)c(C)c2)c1C — higher, 8.07%
- CC(C)c1ccc(CNC(=O)C(=O)NCC2CCCO2)cc1 (centres unmarked) — higher, 5.52%
- O=c1nc2s/c(=C/c3ccccc3Cl)c(=O)n2nc1Cc1ccccc1 — higher, 7.93%
- Cc1ccc(CNCCCN2CCOCC2)cc1 — higher, -1.74%
- O=C(Cn1cnc2c(oc3ccccc32)c1=O)NC1CCCC1 — higher, -1.48%
- CC(C)C[C@H](NC(=O)C1CCNCC1)C(=O)N[C@@H](CCc1ccccc1)C(=O)CO — lower, -5.64%
- CCOC(=O)c1[nH]c2c(c1-c1ccccc1)C(=O)CC(c1cccs1)C2 (centres unmarked) — higher, 1.16%
- O=C1c2cccc3cccc(c23)C(=O)N1CC1CCN(CC(O)COCc2ccccc2)CC1 (centres unmarked) — lower, -6.07%
- O=c1c(N2CCCCC2)coc2ccccc12 — lower, -4.21%
- Cc1ccc(-c2cc(C(=O)N3CCOCC3)c3ccccc3n2)c(C)c1 — higher, 1.03%
- N#CC1=C(SCC(=O)NCc2ccccc2Cl)NC(=O)CC1c1ccccc1F (centres unmarked) — higher, -2.8%
- Cc1ccc(C(=O)Nc2ccc(NC(=O)c3ccccc3)cc2)cc1S(=O)(=O)N1CCOCC1 — higher, 9.02%
- Cc1ccccc1CNC(=O)c1ccco1 — lower, -6.02%
- Cc1ccc2c(=O)cc(C(=O)N(Cc3ccccc3)Cc3ccco3)oc2c1 — lower, -5.08%
- Cc1c2cnn(CC(=O)N3CCN(C)CC3)c(=O)c2c(C)n1Cc1ccc(F)cc1 — higher, 1.22%
- Cc1ccc(-c2noc(CNc3cc(C)cc(C)c3)n2)cc1 — higher, 1.86%
- O=C1OC(COc2ccccc2)CN1c1ccc(Cl)c(Cl)c1 (centres unmarked) — higher, 6.31%
- CCc1nnc(NC(=O)CSc2nnc(Cc3cccn3C)n2CCOC)s1 — higher, -1.84%
- O=C(O)C1CCCN(c2c(O)nc3ccc(Cl)cc3c2-c2ccccc2)C1 (centres unmarked) — higher, 6.49%
- O=C(O)c1ccc2c(c1)C1C=CCC1C(c1cccc3ccccc13)N2 (centres unmarked) — higher, 3.48%
- CCOc1cc(C2C=C(c3ccc(C)cc3)Nc3ncnn32)ccc1OC(F)F (centres unmarked) — higher, 1.73%

For N#C/C(C1=NCCCCC1)=C(/O)c1ccccc1, the “% Inhibition @ 10 uM” value was 2.38% and -1.69%.
